Assay results taken from the GPR68 mutational scans of Howard et al. (2025).

B1: GPR68, Q15743 (parent)
chain: MGNITADNSSMSCTIDHTIHQTLAPVVYVTVLVVGFPANCLSLYFGYLQIKARNELGVYLCNLTVADLFYICSLPFWLQYVLQHDNWSHGDLSCQVCGILLYENIYISVGFLCCISVDRYLAVAHPFRFHQFRTLKAAVGVSVVIWAKELLTSIYFLMHEEVIEDENQHRVCFEHYPIQAWQRAINYYRFLVGFLFPICLLLASYQGILRAVRRSHGTQKSRKDQIQRLVLSTVVIFLACFLPYHVLLLVRSVWEASCDFAKGVFNAYHFSLLLTSFNCVADPVLYCFVSETTHRDLARLRGACLAFLTCSRTGRAREAYPLGAPEASGKSGAQGEEPELLTKLHPAFQTPNSPGSGGFPTGRLA

How the values were obtained:
[1] = variants of: B1; assay: cAMP reporter score (Enrich2 score, wild type = 0); higher = more signal; HEK293T, FACS bins
[2] = variants of: B1; assay: surface expression score (Enrich2 score, wild type = 0); higher = more signal; HEK293T, FACS bins

Variant | cAMP reporter score ([1]; pH 5.5) | cAMP reporter score ([1]; pH 6) | cAMP reporter score ([1]; pH 6.5, modulator: ogerin) | surface expression score [2] | cAMP reporter score ([1]; pH 6, modulator: ogerin)
R128D | -1.93 | -1.15 | -0.905 | -1.27 | 
R128E | -0.542 | -1.41 | -1.45 | -2.35 | -0.788
R128F | -0.64 | -0.86 | -0.505 | -1.93 | -2.62
R128G | 0.419 | -0.12 | -0.753 |  | 0.588
R128H | 2.38 | -1.15 | -0.611 |  | 0.824
R128I | -1.01 | 1.93 | -1.23 | -2.25 | 
R128K | -0.404 | -0.498 |  | -0.118 | -0.689
R128L | -0.795 |  | -0.787 |  | -0.327
R128Q | -0.516 | -0.328 | -0.916 | -1.15 | -0.738
R128S | 0.549 | -0.682 | -1.91 |  | 0.746
R128T | 0.264 | -0.188 |  | -0.392 | -0.733
R128V | -0.625 |  | -0.99 | -0.428 | -0.71
R128W | -1.2 | -0.208 | -1.63 | -1.91 | -1.24
R128Y | -1.05 | -1.89 |  |  | -1.57
R128_F129insGSG | -2.23 | 0.286 | -1.85 |  | 
F129C | 0.243 | -0.972 | -0.843 |  | -0.758
F129D | -2.88 | 0.185 | -1.66 | -1.95 | -2.3

Variant | cAMP reporter score ([1]; pH 5.5) | cAMP reporter score ([1]; pH 6) | cAMP reporter score ([1]; pH 6.5, modulator: ogerin) | surface expression score [2] | cAMP reporter score ([1]; pH 6, modulator: ogerin)
F129E | -1.3 | -1.4 | -1.47 | -2.73 | -1.86
F129G | -1.38 | -0.184 | -1.04 | -1.92 | -1.74
F129H | -0.317 | -1.07 | -0.236 | -2.94 | -0.817
F129I | 0.062 |  | -1.28 | -2.39 | -0.829
F129K | -1.36 | -1.23 | -1.42 | -2.61 | -1.57
F129L | -0.404 | -0.466 | -0.635 | -0.928 | -0.911
F129M | -1.86 | -1.6 | -0.898 | -1.61 | 
F129N | -0.866 | -1.24 | -0.935 | -1.82 | -1.91
F129P | -1.48 | -1.63 | -2.13 | -2.19 | -1.27
F129Q | -0.502 | -0.718 | -0.254 | -3.05 | -1.23
F129R | -1.76 | -1.5 | -1.97 | -3.77 | -1.14
F129S | 0.324 | 0.577 | -0.256 | -1.06 | -0.963
F129T | -1.64 | -1.12 | -0.136 | -1.31 | -1.56
F129V | -0.209 | -0.337 | -0.4 | -2.14 | 0.041
F129W | 0.031 |  | -0.64 | -0.404 | 0.512
F129Y | 0.617 |  | 0.299 | -1.66 | 1.02

The least precise scores are not listed. The source holds two more conditions with little spread; they are left out. Names with del lack the residues named; names with ins carry added residues between the positions named. For some assays here: The concentration of ogerin is not given here.
